Data taken from patent US11773160 (ANAVEON, dated 2023).

Assays:
[1] = biological target: T1, trimeric IL-2 receptor on HEK-Blue IL-2 reporter cells (UniProt P01589 22-272; P14784 27-551; P31785 23-369, limits assumed); assay: cell-based or functional assay
T1 sequence (looked up) 1: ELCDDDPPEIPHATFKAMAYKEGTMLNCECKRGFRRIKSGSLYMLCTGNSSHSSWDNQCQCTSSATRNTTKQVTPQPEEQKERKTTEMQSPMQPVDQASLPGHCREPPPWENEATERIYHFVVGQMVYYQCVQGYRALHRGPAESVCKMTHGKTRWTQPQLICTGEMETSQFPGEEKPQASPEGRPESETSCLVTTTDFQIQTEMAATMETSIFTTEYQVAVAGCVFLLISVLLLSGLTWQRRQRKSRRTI
T1 sequence (looked up) 2: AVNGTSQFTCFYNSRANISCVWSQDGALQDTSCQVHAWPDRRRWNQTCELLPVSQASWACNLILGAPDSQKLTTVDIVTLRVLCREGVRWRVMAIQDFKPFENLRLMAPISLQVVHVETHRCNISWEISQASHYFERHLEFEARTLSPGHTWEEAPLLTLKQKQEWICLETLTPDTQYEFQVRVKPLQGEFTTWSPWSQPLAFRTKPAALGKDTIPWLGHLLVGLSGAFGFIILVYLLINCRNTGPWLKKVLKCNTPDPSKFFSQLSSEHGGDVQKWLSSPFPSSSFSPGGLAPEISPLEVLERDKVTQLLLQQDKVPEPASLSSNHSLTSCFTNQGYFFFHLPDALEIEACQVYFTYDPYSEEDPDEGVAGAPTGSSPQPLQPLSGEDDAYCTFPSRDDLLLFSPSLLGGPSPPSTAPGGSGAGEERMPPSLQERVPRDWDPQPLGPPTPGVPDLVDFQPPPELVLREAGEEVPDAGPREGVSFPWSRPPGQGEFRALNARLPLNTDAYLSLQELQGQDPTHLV
T1 sequence (looked up) 3: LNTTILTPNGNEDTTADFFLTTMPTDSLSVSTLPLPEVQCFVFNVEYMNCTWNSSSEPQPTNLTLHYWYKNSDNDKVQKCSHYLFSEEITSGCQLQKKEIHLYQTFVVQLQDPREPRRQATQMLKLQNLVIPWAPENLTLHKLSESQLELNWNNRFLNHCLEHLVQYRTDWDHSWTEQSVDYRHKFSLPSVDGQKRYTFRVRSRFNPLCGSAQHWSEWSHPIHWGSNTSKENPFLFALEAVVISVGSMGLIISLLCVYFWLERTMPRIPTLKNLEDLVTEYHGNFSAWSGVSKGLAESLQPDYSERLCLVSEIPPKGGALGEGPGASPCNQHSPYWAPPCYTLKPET

[2] = biological target: monoclonal anti-human IL-2 antibody Nara1; assay: ELISA, Nara1 coated, fusion protein titrated, anti-human IgG-Peroxidase; lowest concentration with signal at or above the cut point
[3] = biological target: T2, monoclonal anti-human IL-2 antibody 5344 (BD, 555051); assay: sandwich ELISA, 5344 coated, fusion protein titrated, anti-human IgG-Peroxidase
T2 construct: Coated capture antibody
Description: The antibody-IL-2 fusion proteins were tested on a sandwich ELISA, to assess the correct folding of the IL-2 portion. […] The obtained signals (Absorbance 450-570 nm) were plotted as function of antibody-IL-2 fusion protein concentration (as log value). The $EC50$ values were interpolated fitting the data with GraphPad Prism 8 (Table 6).

[4] = biological target: T3, IL-2R on murine splenocytes (C57BL/6); assay: cell-based or functional assay
T3 sequence (P01590 whole entry, looked up): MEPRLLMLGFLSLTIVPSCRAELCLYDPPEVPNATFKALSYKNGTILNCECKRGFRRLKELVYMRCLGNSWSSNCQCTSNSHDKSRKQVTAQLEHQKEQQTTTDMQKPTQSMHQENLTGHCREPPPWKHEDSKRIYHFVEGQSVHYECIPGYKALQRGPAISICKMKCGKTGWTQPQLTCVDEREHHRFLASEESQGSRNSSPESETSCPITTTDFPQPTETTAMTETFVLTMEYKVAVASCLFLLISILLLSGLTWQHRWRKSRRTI
T3 sequence (P16297 whole entry, looked up): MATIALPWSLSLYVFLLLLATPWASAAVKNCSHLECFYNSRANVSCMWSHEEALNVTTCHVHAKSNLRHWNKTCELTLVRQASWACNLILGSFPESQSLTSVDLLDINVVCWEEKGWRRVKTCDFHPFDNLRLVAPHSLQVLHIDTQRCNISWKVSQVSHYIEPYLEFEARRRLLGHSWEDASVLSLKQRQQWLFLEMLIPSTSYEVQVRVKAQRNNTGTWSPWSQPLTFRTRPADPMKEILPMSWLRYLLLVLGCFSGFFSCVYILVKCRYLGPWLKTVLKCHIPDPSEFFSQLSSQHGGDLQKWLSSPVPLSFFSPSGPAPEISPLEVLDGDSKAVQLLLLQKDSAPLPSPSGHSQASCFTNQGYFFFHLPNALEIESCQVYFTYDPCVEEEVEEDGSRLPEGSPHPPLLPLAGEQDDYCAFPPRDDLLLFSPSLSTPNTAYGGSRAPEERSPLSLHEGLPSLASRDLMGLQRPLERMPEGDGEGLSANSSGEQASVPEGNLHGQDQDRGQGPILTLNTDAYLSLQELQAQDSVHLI
T3 sequence (P34902 whole entry, looked up): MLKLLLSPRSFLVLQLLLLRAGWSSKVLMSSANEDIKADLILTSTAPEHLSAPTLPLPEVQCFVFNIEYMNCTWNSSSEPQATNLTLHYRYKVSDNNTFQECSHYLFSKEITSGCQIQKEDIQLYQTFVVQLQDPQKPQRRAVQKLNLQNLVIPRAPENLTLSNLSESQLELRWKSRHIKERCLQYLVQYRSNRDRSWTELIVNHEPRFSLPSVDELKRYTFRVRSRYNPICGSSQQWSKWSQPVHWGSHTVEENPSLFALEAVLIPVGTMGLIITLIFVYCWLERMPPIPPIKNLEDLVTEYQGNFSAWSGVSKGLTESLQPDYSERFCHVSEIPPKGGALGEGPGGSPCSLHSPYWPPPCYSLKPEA

B1: PGO345 (other)
heavy: EVQLVQSGAEVKKPGESLKISCKGSGYAFTNYLIEWVRQMPGKGLEWMGVINPGSGGTNYNEKFKGQVTISADKSISTAYLQWSSLKASDTAMYYCARWRGEGYYAYFDVWGQGTTVTVSSASTKGPSVFPLAPSSKSTSGGTAALGCLVKDYFPEPVTVSWNSGALTSGVHTFPAVLQSSGLYSLSSVVTVPSSSLGTQTYICNVNHKPSNTKVDKRV[omitted - human IgG1 Fc with changes]
light: AIRLTQSPSSFSASTGDRVTITCKASQSVDYGGGGSGNFHLRPRDLISNINVIVLELKGSETTFMCEYADETATIVEFLNRWITFSQSIISTLTPTSSSTKKTQLQLEHLLLDLQMILNGINNYKNPKLTRMLTFKFYMPKKATELKHLQCLEEELKPLEEVLNLAQSKGGGGSGGDSYMNWYQQKPGKAPKLLIYAASNLESGVPSRFSGSGSGTDFTLTISSLQSEDFATYYCQQSNEDPYTFGGGTKVEIKRTVAAPSVFIFPPSDEQLKSGTASVVCLLNNFYPREAKVQWKVDNALQSGNSQESVTEQDSKDSTYSLSSTLTLSKADYEKHKVYACEVTHQGLSSPVTKSFNRGEC
notes: also called IL-2 fusion protein to antibody A, linker 1 6 AA, linker 2 7 AA
EC50 (M), SEAP of HEK-Blue IL-2 reporter cells [1]: 3.2e-12 M | Lowest concentration (nM) OD450-570 ≥ CP [2]: 0.83 nM | EC50 [3]: 0.16 nM | EC50 CD8 cells (nM), pSTAT5 MFI [4]: 6.6 nM | EC50 NK cells (nM), pSTAT5 MFI [4]: 2.3 nM | EC50 Treg cells (nM), pSTAT5 MFI [4]: 7.6 nM

B2: XUB802 (other)
heavy: EVQLVQSGAEVKKPGESLKISCKGSGYAFTNYLIEWVRQMPGKGLEWMGVINPGSGGTNYNEKFKGQVTISADKSISTAYLQWSSLKASDTAMYYCARWRGEGYYAYFDVWGQGTTVTVSSASTKGPSVFPLAPSSKSTSGGTAALGCLVKDYFPEPVTVSWNSGALTSGVHTFPAVLQSSGLYSLSSVVTVPSSSLGTQTYICNVNHKPSNTKVDKRV[omitted - human IgG1 Fc with changes]
light: AIRLTQSPSSFSASTGDRVTITCKASQSVDYGGGGSGGGGSGGGGSGGGGNFHLRPRDLISNINVIVLELKGSETTFMCEYADETATIVEFLNRWITFSQSIISTLTPTSSSTKKTQLQLEHLLLDLQMILNGINNYKNPKLTRMLTFKFYMPKKATELKHLQCLEEELKPLEEVLNLAQSKGGGGSGGGGSGGGGSGGGGSDSYMNWYQQKPGKAPKLLIYAASNLESGVPSRFSGSGSGTDFTLTISSLQSEDFATYYCQQSNEDPYTFGGGTKVEIKRTVAAPSVFIFPPSDEQLKSGTASVVCLLNNFYPREAKVQWKVDNALQSGNSQESVTEQDSKDSTYSLSSTLTLSKADYEKHKVYACEVTHQGLSSPVTKSFNRGEC
notes: also called IL-2 fusion protein to antibody A, linker 1 19 AA, linker 2 20 AA
EC50 (M), SEAP of HEK-Blue IL-2 reporter cells [1]: 3.32e-12 M | Lowest concentration (nM) OD450-570 ≥ CP [2]: 0.28 nM | EC50 [3]: 0.15 nM | EC50 CD8 cells (nM), pSTAT5 MFI [4]: 17.1 nM | EC50 NK cells (nM), pSTAT5 MFI [4]: 5.8 nM | EC50 Treg cells (nM), pSTAT5 MFI [4]: 12.1 nM

B3: DRV470 (other)
heavy: EVQLVQSGAEVKKPGESLKISCKGSGYAFTNYLIEWVRQMPGKGLEWMGVINPGSGGTNYNEKFKGQVTISADKSISTAYLQWSSLKASDTAMYYCARWRGEGYYAYFDVWGQGTTVTVSSASTKGPSVFPLAPSSKSTSGGTAALGCLVKDYFPEPVTVSWNSGALTSGVHTFPAVLQSSGLYSLSSVVTVPSSSLGTQTYICNVNHKPSNTKVDKRV[omitted - human IgG1 Fc with changes]
light: AIRLTQSPSSFSASTGDRVTITCKASQSVDYGGGGSGGGGSGGGNFHLRPRDLISNINVIVLELKGSETTFMCEYADETATIVEFLNRWITFSQSIISTLTPTSSSTKKTQLQLEHLLLDLQMILNGINNYKNPKLTRMLTFKFYMPKKATELKHLQCLEEELKPLEEVLNLAQSKGGGGSGGGGSGGGGDSYMNWYQQKPGKAPKLLIYAASNLESGVPSRFSGSGSGTDFTLTISSLQSEDFATYYCQQSNEDPYTFGGGTKVEIKRTVAAPSVFIFPPSDEQLKSGTASVVCLLNNFYPREAKVQWKVDNALQSGNSQESVTEQDSKDSTYSLSSTLTLSKADYEKHKVYACEVTHQGLSSPVTKSFNRGEC
notes: also called IL-2 fusion protein to antibody A, linker 1 13 AA, linker 2 14 AA
EC50 (M), SEAP of HEK-Blue IL-2 reporter cells [1]: 3.61e-12 M | Lowest concentration (nM) OD450-570 ≥ CP [2]: 0.83 nM | EC50 [3]: 0.1 nM | EC50 CD8 cells (nM), pSTAT5 MFI [4]: 7.9 nM | EC50 NK cells (nM), pSTAT5 MFI [4]: 2.4 nM | EC50 Treg cells (nM), pSTAT5 MFI [4]: 10.3 nM
